Assay results reported in PubChem BioAssay AID1159614 (National Center for Advancing Translational Sciences (NCATS), 2016).
Among all 45,000 compounds or so, about 65 (0.1%) were called active. Calls come from the whole dose curve; as a rule, active = well fitted activation curve with a large enough effect; inconclusive = small, poorly fitted or top-dose-only effect; inactive = no such curve, though single readings can be large or run the other way. This is one part of the list.

Molecular target: Galactocerebrosidase (Homo sapiens) (UniProt P54803)
Assay: A Novel Cell-Based Assay to Identify Small Molecules for B -Galactocerebrosidase; note: 0% is about no effect; nearly all actives have a fitted effect of over 65% in size
Conditions: 145M-Twi-hGALC-G270D cells (Twitcher mouse brain line with human GALC G270D), HMU-beta-Gal fluorescence, 48 h; series mostly up to 57.5 µM; activation: at the top concentration
Procedure, shortened: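 Fluorogenic HMU-b-Gal hydrolysis (0.1 mM final, pH 5.2 citrate-phosphate with 1 mg/mL sodium taurocholate; carbonate stop buffer) measures mutant GALC activity after compound treatment of live 145M-Twi Twitcher brain cells stably carrying human GALC-G270D, with wild-type GALC line alongside; activation sought.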

Chain of UniProt P54803 (P54803 whole entry, looked up): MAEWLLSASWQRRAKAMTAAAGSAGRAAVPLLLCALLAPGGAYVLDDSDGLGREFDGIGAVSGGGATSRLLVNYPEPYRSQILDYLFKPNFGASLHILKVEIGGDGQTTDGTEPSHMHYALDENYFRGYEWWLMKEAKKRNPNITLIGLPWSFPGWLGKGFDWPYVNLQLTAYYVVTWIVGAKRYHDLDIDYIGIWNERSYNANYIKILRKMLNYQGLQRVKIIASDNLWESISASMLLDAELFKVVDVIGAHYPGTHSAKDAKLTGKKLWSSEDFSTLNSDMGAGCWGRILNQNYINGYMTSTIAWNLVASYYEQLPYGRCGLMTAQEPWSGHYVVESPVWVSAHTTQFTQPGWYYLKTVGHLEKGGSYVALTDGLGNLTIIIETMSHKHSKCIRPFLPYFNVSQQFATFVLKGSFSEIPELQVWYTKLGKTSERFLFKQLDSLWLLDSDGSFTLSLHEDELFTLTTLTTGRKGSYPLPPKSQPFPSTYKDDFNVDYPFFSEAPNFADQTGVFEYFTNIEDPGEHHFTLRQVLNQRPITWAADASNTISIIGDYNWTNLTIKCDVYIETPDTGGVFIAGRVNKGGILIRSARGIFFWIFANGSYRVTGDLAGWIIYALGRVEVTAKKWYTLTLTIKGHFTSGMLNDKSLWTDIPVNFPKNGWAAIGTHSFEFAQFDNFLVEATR

activation, inactive:
CC1(C)O[C@@H]2C[C@H]3[C@@H]4CCC5=CC(=O)C=C[C@]5(C)[C@@H]4[C@@H](O)C[C@]3(C)[C@]2(C(=O)CO)O1 -6.69%
O=C(Cn1c(=O)n(-c2ccc(Cl)cc2)c(=O)c2sc3ccccc3c21)NC1CCCCC1 -5.29%
COc1cccc(NC(=O)C(=O)NCC(c2ccc3c(c2)OCO3)N2CCOCC2)c1 (stereo not given) 4.21%
COc1ccc(-c2cc(C(F)(F)F)nc(NCc3ccccc3)n2)cc1 -4.88%
Cc1ccccc1NC(=O)Cn1c(=O)n(-c2ccc(CC(=O)NCC3CCCO3)cc2)c(=O)c2ccccc21 (stereo not given) -14.4%
CN(Cc1ccccc1)C(C(=O)NC1CCCCC1)c1ccc(Cl)cc1 (stereo not given) -3.42%
COc1cc(OC)c(NC(=O)CCn2cccn2)cc1Cl -12.1%
Fc1ccc(C(Nc2ccc(Cl)c(C(F)(F)F)c2)c2nnc(-c3ccccc3)o2)cc1 (stereo not given) -6.81%
Cc1ccc(NC(=O)CSc2nc3ccccc3c3nc(CCn4cncc4C)nn23)c(C)c1 -15.6%
COc1cccc(-c2nc(CS(=O)(=O)CC(=O)Nc3cc(F)ccc3F)c(C)o2)c1 -11.6%
Cc1ccc(OCC(=O)N(Cc2ccco2)Cc2ccco2)cc1 4.06%
Cc1c2cnn(-c3ccccc3)c(=O)c2c(C)n1CC(=O)N1CCN(c2ccc(F)cc2)CC1 -9.15%
CCN(CCCNC(=O)CSc1cc(=O)n(C)c2cc(Cl)ccc12)c1cccc(C)c1 -33%
COc1cc(-c2noc(-c3ccc(N4CCOCC4)c([N+](=O)[O-])c3)n2)cc(OC)c1OC -14.3%
COc1ccc2nc3sc(C(=O)N4CCN(c5ccccc5)CC4)cc3cc2c1 0.698%
COc1ccc(CCNC(=O)CCn2c(=O)c3ccccc3n(Cc3c(C)cc(C)cc3C)c2=O)cc1OC -6.92%
CCS(=O)(=O)c1nc2ccccc2n1CC(=O)Nc1ccccc1C(=O)OC -11.5%
CCc1ccc(C(=O)c2c(N)c(-c3nc(-c4ccc5c(c4)OCO5)cs3)c3ccccn23)cc1 -9.84%
Oc1c(C(c2ccc(Br)cc2)N2CCOCC2)sc2nc(-c3ccco3)nn12 (stereo not given) -3.03%
CCCCNc1nc2c(S(=O)(=O)c3ccc(Cl)cc3)nnn2c2ccsc12 -10.9%
Cc1nn(-c2ccccc2)c2c1N(CCCC(=O)NCc1ccc(Cl)cc1)C(=O)CS2 -1.25%
O=C(NCc1ccco1)c1c[nH]c2ccc(S(=O)(=O)Nc3ccc(F)cc3F)cc2c1=O 3.32%
CN1CCN(C(=O)c2cnn(-c3cccc(Cl)c3)c2C2CCN(C(=O)OC(C)(C)C)CC2)CC1 -17.7%
COc1cccc(CNC(=O)c2ccc3c(c2)N(Cc2ccc(C(F)(F)F)cc2)C(=O)c2ccccc2S3)c1OC 6.22%
N#Cc1ccccc1S(=O)(=O)N1CCCC(c2nc3c(nnn3Cc3cccc(Cl)c3)c(=O)[nH]2)C1 (stereo not given) -12%
CC(C)CCNC(=O)CN1C(=O)c2cccnc2Oc2ccccc21 0.0839%
Cc1csc2nc(CCNS(=O)(=O)c3ccccc3)cn12 -5.39%
CN(C)c1ccc(C(CNC(=O)c2ccccc2F)N2CCc3ccccc32)cc1 (stereo not given) -13.5%
Cc1c(NC(C)C)c(=O)n(-c2ccccc2)n1C -16.9%
CCOC(=O)c1cc(-c2ccc(F)cc2)n(CC(=O)NCc2ccc(OC)cc2)c1C -4.14%
COC(=O)c1ccc([C@H]2Nc3ccc(S(=O)(=O)Nc4ccc(C)cc4)cc3[C@H]3C=CC[C@H]32)cc1 -8.56%
CCOc1ccccc1CNC(=O)CN(c1ccc(C)cc1)S(=O)(=O)N(C)C -7.91%
COc1ccc(-c2nnc(SCC(=O)NCc3ccccc3)nc2-c2ccc(OC)c(OC)c2)cc1OC 3.51%
Cc1ccc(CN(Cc2ccco2)C(=O)COc2ccc(Cl)cc2Cl)cc1 3.65%
CCOc1ccc(NC(=O)Cc2ccc(NC(=O)N3CCCCc4ccccc43)cc2)cc1 1.37%
CC(C)(C)c1ccc(S(=O)(=O)c2cnc(SCC(=O)Nc3ccc(F)c(Cl)c3)[nH]c2=O)cc1 -11.5%
COc1cc(-c2noc(-c3ccc(N4CCCCC4)c([N+](=O)[O-])c3)n2)cc(OC)c1OC -16.2%
CCOCCc1nn2c(=O)cc(COC(=O)c3ccco3)nc2s1 -2.9%
COc1cccc(CNC(=O)c2nnc(Cc3ccc(Cl)cc3)o2)c1 -3.34%
O=C(Nc1ccc2oc(-c3cc(Br)ccc3Cl)nc2c1)c1ccc2ccccc2c1 -6.68%
CC(C)(C)c1ccc(S(=O)(=O)N2CCN(C(=O)c3cc(-c4ccc(Br)cc4)n[nH]3)CC2)cc1 -7.08%
O=C(CSc1nc(O)c(C/C=C/c2ccccc2)c(=O)[nH]1)Nc1cccc(F)c1 -12%
CCOc1ccc(NC(=O)c2noc3c2CSc2ccccc2-3)cc1 -13%
CN(C(=O)c1oc(=O)c2ccccc2c1-c1ccccc1)c1cccc(Cl)c1 -12.9%
CCCn1c(=O)c2sccc2n2c(CCCC(=O)Nc3ccccc3F)nnc12 -3.38%
COc1ccc(-n2c(SCC(=O)NCc3ccccc3)nc3n[nH]c(C)c3c2=N)cc1 -15.4%
CCOC(=O)Cn1c(=O)n(C2CCCCC2)c2nc(-c3cccc(C)c3)nc(C(N)=O)c21 -14.4%
COc1cccc(N2CCN(C(=O)Cn3ncc4c(=O)oc5ccccc5c43)CC2)c1 -12.2%
O=C1CC(c2cccc(F)c2)c2c(n3ncnc3[nH]c2=O)N1 (stereo not given) -6.43%
O=C(CSc1ccc(-c2cccs2)nn1)Nc1cccc(F)c1 -41.9%
CCN1CCN(CCCNC(=O)c2ccc3c(c2)sc2nc(-c4ccc(C)cc4)cn23)CC1 -5.36%
COc1ccc(-c2cc(C)no2)cc1S(=O)(=O)N1CC(C)Oc2ccccc21 (stereo not given) -15.1%
COc1ccccc1N1CCN(c2ncnc3onc(C)c23)CC1 -14.9%
COc1ccc(-n2nc(C(=O)N3CCN(c4cccc(C(F)(F)F)c4)CC3)c3c4ccccc4n(C)c3c2=O)cc1Cl -16.7%
CCOc1ccc(CCNC(=O)Cc2ccc(NC(=O)N3CCSc4ncccc43)cc2)cc1 -18.7%
CCCNC(C)C(=O)Nc1c(C)csc1C(=O)OC (stereo not given) -10.5%
COc1cccc(CN2CCc3nc(N4CCN(C)CC4)ncc3C2)c1 -5.92%
COc1cc(OC)cc(C(=O)Nc2nc(-c3nnn(-c4ccc(F)c(Cl)c4)c3C)ns2)c1 -14.8%
Cc1cccc(-c2noc(-c3cc(-c4ccc(F)cc4)n[nH]3)n2)c1 -18.6%
COc1cccc(N2CCN(C(=O)Cn3ncc4c5ccccc5n(C)c4c3=O)CC2)c1 -2.12%
Cc1oc2ncn(C)c(=O)c2c1C(=O)NCc1ccccc1 -11.4%
COc1ccc(NC(=O)CSc2nc(C)cc(C)c2C(=O)Nc2cccc(C)c2)cc1 -8.36%
COc1ccc2cc3cc(C(=O)Nc4ccccc4C)oc3nc2c1 -11.5%
COc1cccc(C(=O)Nc2ccccc2-c2nnc(-c3ccc(C(C)(C)C)cc3)o2)c1 3.9%
O=C(c1ccccc1Cl)N1CCN(CCc2ccccn2)CC1 -1.18%
CCN1CCN(C(=O)c2ccc3c(c2)N(Cc2ccccc2F)C(=O)c2ccccc2S3(=O)=O)CC1 1.04%
Cc1ccccc1NC(=O)c1ccc(F)c(S(=O)(=O)NC2CCCC2)c1 -5.77%
Cc1ccc(NC(=O)Nc2ccc3nc(N4CCN(C)CC4)cc(C)c3c2)cc1C -1.78%
CCOc1ccc(-c2cc(CCCC(=O)NCCc3ccc(OCC)c(OCC)c3)no2)cc1 2.05%
C[C@@H](NC(=O)CN(c1ccccc1)S(=O)(=O)N(C)C)c1ccccc1 -21.8%
CCCOC(=O)c1ccc(Nc2nc3ccccc3nc2-n2nc(C)cc2C)cc1 -13%
COc1cccc(N(C)C(=S)Oc2ccc3c(c2)CCCC3)n1 -10.1%
Cc1ccc(N2CCN(C(=O)c3c(C)oc4nc(C)nc(N5CCCC5)c34)CC2)c(C)c1 -5.83%
COc1ccc(NC(=O)c2sc3nc4c(cc3c2N)CCCCCC4)cc1Cl -10.4%
CCOC(=O)c1cccc(NC(=O)N2CC(CC)Oc3ccccc32)c1 (stereo not given) 0.641%
COc1cc(NS(=O)(=O)c2ccc(NC(=O)c3ccc(C(C)=O)cc3)cc2)nc(OC)n1 -2.06%
CCc1nn(CC(=O)NCCN(CC)CC)c(=O)c2cc3occc3n12 3.12%
O=C(CSc1ncc2c(n1)-c1ccccc1N(Cc1ccc(F)cc1)S2(=O)=O)NCc1ccccc1 1.16%
Cc1nc2cccnc2n1C1CCN(S(=O)(=O)c2ccc(C(C)C)cc2)CC1 -34.7%
CCn1c(=O)c2cc(C(=O)N(C)c3cc(Cl)c(OC)cc3OC)sc2c2ccccc21 -18.7%
Cc1cccc(CNC(=O)CCCN2C(=O)COc3ccc(C)cc32)c1 2.41%
Cc1cccc(-n2ncc(C(=O)NCc3ccco3)c2C2CCN(C(=O)OC(C)(C)C)CC2)c1 -16.4%
CC(=O)c1cccc(Nc2ncnc3c2cnn3-c2cccc(Cl)c2)c1 -5.33%
COc1cccc(NC(=O)CC2Oc3ccccc3NC2=O)c1 (stereo not given) -9.74%
C=Cc1ccc(Cn2c(C(=O)OC)cc3sc(C)cc32)cc1 -7.18%
CC(C)OCCCNC(=O)CN1C(=O)CSc2ccc(S(=O)(=O)N3CCOCC3)cc21 -21.8%
COc1cccc(NC(=O)c2oc3ccc(S(=O)(=O)N4CCOCC4)cc3c2C)c1 -6.98%
CC1CCCCN1S(=O)(=O)c1ccc2[nH]c(=O)cc(C(=O)NCCc3ccc(Cl)cc3)c2c1 (stereo not given) 5.14%
COC(=O)c1c(NC(=O)c2c(OC)cccc2OC)sc2c1CCCC2 -11.5%
CCc1ccc(Nc2nc3c(S(=O)(=O)c4cccc(Cl)c4)nnn3c3ccsc23)cc1 -17.5%
CC(=O)Nc1c(C(=O)Nc2ccccc2F)oc2ccccc12 2.12%
COc1ccc(-n2cc(C(=O)Nc3ccccc3C#N)c3ccccc3c2=O)cc1 -8.54%
CNc1nc(Oc2ccc(=O)[nH]n2)nc(N2CCOCC2)n1 -17.8%
Cc1ccccc1CNC(=O)Cn1cc2c(n1)-c1c(oc(C(=O)N3CCCC3)c1C)CC2 5.47%
COc1ccccc1NC(=O)C1=C(C)Nc2ncnn2C1c1sccc1C (stereo not given) -24.5%
